Assay results taken from PubChem BioAssay AID624173 (National Center for Advancing Translational Sciences (NCATS), 2012).
In all, about 410,000 compounds went through this assay and about 490 (0.12%) were called active. The inconclusive results got no clear call from the source; some entries with a clear call stand among them for comparison. Calls follow the shape of the dose curve; as a rule, active = well fitted inhibition curve with a large enough effect; inconclusive = small, poorly fitted or top-dose-only effect; inactive = flat fitted curve, though single readings scatter. Potencies of inconclusive entries are doubtful fits and often do not repeat.

What follows are compounds tested against pyruvate kinase (Trypanosoma brucei) (UniProt Q57TT1) (assay: qHTS of Trypanosoma Brucei Inhibitors). Settings: TbPYK enzyme, Kinase-Glo Plus ATP luminescence, 45 min; series mostly up to 76.8 µM.
In short: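 Readout: single end-point luminescence (Kinase-Glo Plus, 10 min). Reaction conditions were TbPYK/substrate plus 130 uM ADP, 45 min at RT, pH 7.2 TEA buffer. No-enzyme wells served as controls, and data were normalized before concentration-response fitting.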
Also: nearly all actives have a fitted effect of over 50% in size.
Potency is read from the fitted curve at half-maximal effect; tags tell the direction and shape of the fitted curve.

| SMILES | Potency |
| --- | --- |
| CCN(CC)c1ccccc1 | inactive |
| Cc1cc2nc(-c3ccc[nH]c3=O)[nH]c2cc1C | inconclusive: 28.2 µM [inhibitor, partial curve, poor fit] |
| CCCn1c(N)c(C(=O)CSc2nnc(N)s2)c(=O)[nH]c1=O | inactive |
| Cc1cc(C)c2c(=O)n(CC(=O)N3CCC(N4CCCCC4)CC3)sc2n1 | inconclusive: 12.6 µM [inhibitor, partial curve, poor fit] |
| CCN(CC)c1ccc(Nc2nc(N3CCOCC3)c3ccccc3n2)cc1 | inconclusive: 2 µM [inhibitor, full curve, poor fit] |
| CCc1ccc(CNC(=O)COc2cc(=O)n(CC)c3ccccc23)cc1 | inactive |
| COc1cccc(C(=O)CC2(O)C(=O)Nc3ccc(Cl)cc32)c1 (stereo not drawn) | inactive |
| CCC(C)[C@@H](N)C(=O)O (stereo partly drawn) | inactive |
| CC(C)CCC[C@](C)(O)c1ccc(C(=O)O)cc1O | inactive |
| Cc1coc2c(O)cc3c(c12)OC1(N2CCCCC2)C(=O)NCCCC31 (stereo not drawn) | inconclusive: 35.5 µM [inhibitor, single point] |
| O=C(N/N=C/c1ccc(N2CCOCC2)o1)c1cccc(C(F)(F)F)c1 | inconclusive: 28.2 µM [inhibitor, partial curve, poor fit] |
| Cc1c(C#N)c(=O)c(-[n+]2ccccc2)c([S-])n1-c1ccc(Cl)cc1 | inconclusive: 14.1 µM [inhibitor, partial curve, poor fit] |
| Oc1c(CN2CCOCC2)ccc(CN2CCOCC2)c1O | inconclusive: 4.47 µM [inhibitor, full curve, poor fit] |
| N#Cc1cc2c([nH]c1=S)CCCC2 | active: 5.62 µM |
| CCN(CC)c1ccc(C2C(C(=O)OCCOC)=C(C)NC3=C2C(=O)CCC3)cc1 (stereo not drawn) | inconclusive: 28.2 µM [inhibitor, partial curve, poor fit] |
| CC(O)CNc1nc2c(c(=O)n(Cc3ccc(Br)cc3)c(=O)n2C)n1C (stereo not drawn) | inactive |
| COc1ccc(-n2nnnc2SCc2nc3ccccc3s2)cc1 | inconclusive: 31.6 µM [inhibitor, partial curve, poor fit] |
| CCC(C)(C)n1nnnc1C(c1cc2ccc(OC)cc2[nH]c1=O)N1CCc2ccccc21 (stereo not drawn) | inconclusive: 44.7 µM [inhibitor, single point] |
| CN(C)CCCN(C(=O)CCOc1ccccc1)c1nc2c(F)cccc2s1 | inconclusive: 50.1 µM [inhibitor, single point] |
| S=c1nc[nH]c2c1[nH]c1ccccc12 | inconclusive: 6.31 µM [inhibitor, partial curve, poor fit] |
| CC1CCCC(NC(=O)COC(=O)CCSc2ccccc2)C1C (stereo not drawn) | inactive |
| O=C(c1[nH]ncc1-c1cccc(Br)c1)C1CO1 (stereo not drawn) | inactive |
| O=C(N[C@H]1C/C=C\C[C@H](CC(=O)N(CCO)Cc2ccccc2)C(=O)N[C@@H](c2ccccc2)COC1=O)OCC1c2ccccc2-c2ccccc21 | inactive |
| COC(=O)c1ccc(NC(=O)CSc2n[nH]c(CC(C)C)n2)cc1 | inactive |
| Cn1cc(P(=O)(N2CCOCC2)N2CCOCC2)cc1P(=S)(N1CCOCC1)N1CCOCC1 | inconclusive: 10 µM [inhibitor, partial curve, poor fit] |

| SMILES | Potency |
| --- | --- |
| CCC(=O)Nc1ccccc1C(=O)OCC(=O)Nc1ccc(S(N)(=O)=O)cc1 | inconclusive: 50.1 µM [inhibitor, single point] |
| O=C1N=c2ccccc2=C1c1sc(=O)[nH]c1O | inconclusive: 39.8 µM [inhibitor, partial curve, poor fit] |
| Cc1ccc(Nc2n[nH]c(=S)s2)c(C)c1 | inconclusive: 17.8 µM [inhibitor, partial curve, poor fit] |
| C[N+]1(C)CCc2cc3c(cc2[C@H]1[C@@H]1OC(=O)c2c1ccc1c2OCO1)OCO3 | inconclusive: 35.5 µM [inhibitor, single point] |
| CCOc1ccc(NC(=O)Nc2cc(C)ccc2F)cc1 | inconclusive: 35.5 µM [inhibitor, partial curve] |
| CN(c1cccc(NC(=O)COc2ccccc2)c1)S(C)(=O)=O | inactive |
| COC(=O)CCC(=O)Nc1sc(C)c(C)c1C(N)=O | inconclusive: 25.1 µM [inhibitor, partial curve, poor fit] |
| Cc1ccc(S(=O)(=O)Nc2cc(C(F)(F)F)ccc2N2CCOCC2)cc1C | inactive |
| COc1ccc(N2C(=O)c3cccc4cccc(c34)C2=O)nn1 | inconclusive: 50.1 µM [inhibitor, single point] |
| Cc1ccc(CCNC(=O)c2cc(-c3ccc(Cl)cc3)n[nH]2)cc1 | inactive |
| S=c1[nH]nc2sc3ccccc3n12 | inconclusive: 14.1 µM [inhibitor, partial curve] |
| CC(C)(C)c1ccc(-c2csc(NNC3=NCCCCC3)n2)cc1 | inconclusive: 28.2 µM [inhibitor, partial curve, poor fit] |
| CCOc1ccc(-c2cc(N3C(=O)Nc4ccccc4N3O)on2)cc1 | inconclusive: 39.8 µM [inhibitor, single point] |
| CC(CC(=O)O)Nc1ccccc1O (stereo not drawn) | inactive |
| CNS(=O)(=O)c1ccc(-c2ccc(C=C3C(=O)NC(=O)NC3=O)o2)cc1 | inconclusive: 8.91 µM [inhibitor, full curve] |
| CCCCCNC(=O)c1ccc2c(c1)nc(C)n2-c1cccc(C)c1 | inactive |
| Cc1[nH]c(=S)c(C#N)c(C)c1C(=O)Nc1ccccc1 | inconclusive: 7.94 µM [inhibitor, partial curve, poor fit] |
| Cc1ccc(-n2c(C(C)n3nc(C)c([N+](=O)[O-])c3C)n[nH]c2=S)cc1 (stereo not drawn) | inconclusive: 15.8 µM [inhibitor, partial curve, poor fit] |
| O=C(Nc1ccc(F)cc1Cl)C1Cc2ccccc2N1C(=O)c1ccccc1 (stereo not drawn) | inactive |
| O=S(=O)(c1ccccc1)N1N=C(c2ccc(Br)cc2)CC1c1ccco1 (stereo not drawn) | inconclusive: 44.7 µM [inhibitor, single point] |
| Cc1cc(C(=O)N/N=C/c2ccc(N(C)C)o2)cs1 | inconclusive: 50.1 µM [inhibitor, single point] |
| c1ccc(-c2ccc(-c3nc(-c4ccccn4)no3)cc2)cc1 | inconclusive: 22.4 µM [inhibitor, partial curve, poor fit] |
| O=C(c1ccc([N+](=O)[O-])cc1)N1CCN(c2ccc(Nc3ccccc3)nn2)CC1 | inactive |
| O=C(CCC1CCCC1)NCc1ccccn1 | inactive |
| CCOC(=O)N=S(N)(=O)c1ccc(Cl)cc1 (stereo not drawn) | inconclusive: 35.5 µM [inhibitor, single point] |

| SMILES | Potency |
| --- | --- |
| C=C1C(=O)[C@]23C[C@H]1CCC2[C@@]1(C)C(C[C@@H]3O)[C@](C)(C(=O)OC)CC[C@@H]1OC(C)=O (stereo partly drawn) | inactive |
| Cc1cccc(-c2n[nH]c(=S)n2Cc2ccccc2)c1 | inconclusive: 2.51 µM [inhibitor, partial curve, poor fit] |
| O=C1C(=Cc2ccccc2Cl)CCc2ccccc21 | active: 31.6 µM |
| O=C(/C=C/c1ccccc1)c1ccccn1 | inconclusive: 25.1 µM [inhibitor, single point] |
| COc1cccc(/C=N/n2c(COc3ccccc3)n[nH]c2=S)c1 | inconclusive: 12.6 µM [inhibitor, partial curve, poor fit] |
| Cc1ccnc(NC(=O)c2ccc3c(c2)OCO3)c1 | inconclusive: 31.6 µM [inhibitor, partial curve, poor fit] |
| Cc1cc(N2CCOCC2)ccc1/C=C1/SC(=O)NC1=O | inconclusive: 28.2 µM [inhibitor, partial curve, poor fit] |
| O=C(c1cc(C(F)(F)F)cc(C(F)(F)F)c1)N1CCC2(CCCN(c3ncccn3)C2)CC1 | inactive |
| C/C(=N/NC(=O)c1cc2ccccc2cc1O)c1ccco1 | inactive |
| NC(=S)N/N=C1\CC(n2nnnc2-c2ccccc2)C2COC1O2 (stereo not drawn) | inconclusive: 22.4 µM [inhibitor, partial curve] |
| Cc1ccc(C(=O)NC(=S)NNC(=O)c2ccc([N+](=O)[O-])cc2)cc1 | inactive |
| Cc1nc(-c2ccc(C(=O)N3CCCC3)cc2)cs1 | inconclusive: 25.1 µM [inhibitor, partial curve, poor fit] |
| COc1ccccc1-c1nnc(SCC(=O)N2CCOCC2)o1 | inactive |
| NC(=O)c1ccsc1NC(=O)CCc1ccccc1 | inactive |
| Cc1nnc(C)n1/N=C/c1cccn1C | inconclusive: 35.5 µM [inhibitor, single point] |
| CCc1cc(=O)oc2c(C)c3c(cc12)CN(CCc1ccccc1OC)CO3 | inactive |
| C=CCn1c(CCSCc2ccccc2)n[nH]c1=S | inconclusive: 8.91 µM [inhibitor, partial curve] |
| COc1ccc(-c2nnc(SCC(=O)N3CCc4ccccc43)o2)cc1OC | inactive |
| CCOc1ccc(-c2ccc(SC)nn2)cc1 | inconclusive: 14.1 µM [inhibitor, partial curve, poor fit] |
| CC(C)Sc1nc(N2CCOCC2)c2c(c1C#N)CC(C)(C)N(C)C2 | inconclusive: 25.1 µM [inhibitor, partial curve] |
| Cc1ccc2nc(N(CCCN(C)C)C(=O)c3ccc4ncsc4c3)sc2c1 | active: 25.1 µM |
| COc1ccc(CCNC(=O)C(=O)NCC2OCCN2C(=O)c2ccc(Cl)cc2)cc1 (stereo not drawn) | inconclusive: 15.8 µM [inhibitor, partial curve, poor fit] |
| Cn1c(=S)c2[nH]c(SCC3CCCO3)nc2n(C)c1=O (stereo not drawn) | inconclusive: 17.8 µM [inhibitor, partial curve] |
